# PubChem BioAssay AID488969 (Vanderbilt High Throughput Screening Facility, 2010)
# Over roughly 110,000 compounds, “z-score” has its median near -0.1; the highest 2% begin near 2. Some of the results follow.
# Target: Metabotropic glutamate receptor 8 (Rattus norvegicus) (UniProt P70579)
# Test: rat mGluR8 modulators via GIRK flux, primary screen, cell-based, thallium flux, HTS (AID 488969)
# Settings: HEK293 rat mGluR8, GIRK (G protein-gated inwardly rectifying potassium channel) thallium flux, FluoZin2; at 10 µM; stronger effect = higher value; submaximal glutamate (EC20) added with thallium
# Chain of UniProt P70579 (P70579 whole entry, looked up): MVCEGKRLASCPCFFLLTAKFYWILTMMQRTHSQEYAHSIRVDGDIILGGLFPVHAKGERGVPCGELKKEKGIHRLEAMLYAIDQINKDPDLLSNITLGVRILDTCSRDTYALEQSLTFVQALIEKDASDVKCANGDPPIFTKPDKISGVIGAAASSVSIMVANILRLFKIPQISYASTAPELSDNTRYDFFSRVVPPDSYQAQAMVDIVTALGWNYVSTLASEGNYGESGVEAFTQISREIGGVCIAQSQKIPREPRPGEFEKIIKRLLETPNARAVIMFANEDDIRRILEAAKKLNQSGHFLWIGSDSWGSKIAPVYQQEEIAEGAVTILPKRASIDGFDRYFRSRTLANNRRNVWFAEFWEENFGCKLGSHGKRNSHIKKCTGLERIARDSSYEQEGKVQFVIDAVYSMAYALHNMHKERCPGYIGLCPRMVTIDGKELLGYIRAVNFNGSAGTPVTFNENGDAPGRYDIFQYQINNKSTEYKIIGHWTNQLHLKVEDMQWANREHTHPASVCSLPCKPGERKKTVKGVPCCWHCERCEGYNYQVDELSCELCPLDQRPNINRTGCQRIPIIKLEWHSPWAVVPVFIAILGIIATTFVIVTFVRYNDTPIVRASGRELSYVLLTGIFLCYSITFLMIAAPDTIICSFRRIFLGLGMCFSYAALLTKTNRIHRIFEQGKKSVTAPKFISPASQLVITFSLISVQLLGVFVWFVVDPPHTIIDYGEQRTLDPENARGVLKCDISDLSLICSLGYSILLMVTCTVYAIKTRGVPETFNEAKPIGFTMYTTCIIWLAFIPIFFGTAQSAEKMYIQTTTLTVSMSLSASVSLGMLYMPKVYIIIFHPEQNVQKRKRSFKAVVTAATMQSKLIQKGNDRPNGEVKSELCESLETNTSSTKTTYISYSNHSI
row,SMILES,z-score
1,O=C(CCSc1ccccc1)Nc1ccccc1C(=O)N1CCCC1,-0.147
2,CCCC(=O)NCCCCNC(=O)CCC,-0.153
3,CO/N=C(\CS(=O)(=O)Cc1ccc(OC)cc1)c1ccc(Cl)cc1,-0.149
4,CCC(c1nnnn1CCOC)N1CCN(c2cccc(C(F)(F)F)c2)CC1 (stereo unspecified),0.167
5,Cc1cc(Br)ccc1OCCCCN1CCC(C)CC1,0.0252
6,Cc1[nH]c2ccccc2c1C(=O)COC(=O)CCS(=O)(=O)c1ccccc1Cl,-1.04
7,O=C(Nc1ccccc1)Nc1ccc2snnc2c1,-0.373
8,Cc1ccc(S(=O)(=O)N2CCOCC2)cc1NC(=O)COC(=O)CCC(=O)c1cccs1,0.848
9,COc1ccc(OCC(=O)NNC(=O)c2ccccn2)cc1,-0.0312
10,CCOc1ccc(NC(=O)C2(c3ccc(OC)c(OC)c3)CCCC2)cc1,-0.247
11,CCOC(=O)c1ccc(N/C=C2\CCCCC2=O)cc1,-0.151
12,Cc1ccc(-c2nc3ncccn3c2Nc2ccc3c(c2)OCCO3)o1,-0.196
13,Cc1ccc(NC(=O)CN(C)S(=O)(=O)c2cccc3cccnc23)cc1,-0.147
14,COC(=O)c1ccc(/C=N\n2c(C)nnc2C)cc1,-0.444
15,CCN(c1ccccc1)S(=O)(=O)c1ccc(NC(=S)NC(=O)c2cccs2)cc1,2.75
16,CC(C)CCOCC(=O)Oc1ccccc1C(=O)O,-0.136

row,SMILES,z-score
1,O=C(Nc1cccc(F)c1)OC(CN1CCCCC1)C(F)(F)F (stereo unspecified),-0.0064
2,CSC(=NS(=O)(=O)c1ccccc1)SC,-0.11
3,COc1ccc(OC)c(N(CC(=O)N2CCC(C)CC2)S(=O)(=O)c2ccccc2)c1,-0.28
4,CC(C)c1nc2sc3c(=O)[nH]c(=S)[nH]c3c2c2c1CCC2,-0.834
5,CC(OC(=O)C1CC=CCC1C(N)=O)C(Cl)=C(Cl)Cl (stereo unspecified),-0.252
6,CCN(CC)S(=O)(=O)c1cc([N+](=O)[O-])ccc1NNC(=O)Nc1ccccc1OC,0.0744
7,COC(=O)c1ccc(NC(=O)C(=O)N2CCN(C(=S)Nc3ccc(C)cc3)CC2)cc1,-0.0799
8,COc1ccc(S(=O)(=O)N(C)c2ccc(C(N)=O)cc2)cc1,-0.471
9,COC(=O)c1cc(NC(=O)CCc2c(C)nc3ncnn3c2C)cc(C(=O)OC)c1,-0.436
10,CCC(CC)C(=O)Nc1cc(=O)n(C)c(=O)n1C,-0.0377
11,COc1ccc(Nc2nnc(-c3ccccc3)c3ccccc23)cc1C(=O)N1CCCCC1,-0.462
12,O=C(Nc1cc2c(ccc3ccccc32)oc1=O)C1CCCCC1,-0.146
13,Cc1c(C(=O)NC(C)C)sc2ncn(CC(=O)N3CCC(C)CC3)c(=O)c12,-0.00251
14,CCn1c(SCC(=O)N2CCC(C(N)=O)(N3CCCCC3)CC2)nnc1-c1ccccc1,2.65
15,Cc1ccc(S(=O)(=O)c2nc(N3CCOCC3)sc2Cl)cc1,-1.02
